Data reported in PMC12171682, “Saarvienin A—A Novel Glycopeptide with Potent Activity against Drug‐Resistant Bacteria” (Angewandte Chemie (International Ed. in English), 2025).
≈ marks a conversion by molar mass, not a printed value.

Assays:
[1] = system: P. aeruginosa PA14 ΔmexAB; conditions: broth microdilution, cation-adjusted Mueller-Hinton Broth II, ~4 × 10⁵ CFU/mL, 37 °C, 24 h; mean of three independent biological replicates, each in technical triplicate
Excerpt: All bacterial isolates were handled following standard procedures. Staphylococcus aureus strains Mu50 and N315 were obtained from the Institute of Medical Microbiology, Zurich, Switzerland. […] E. faecalis DSM 12956 and Enterococcus faecium DSM 17050 were purchased from the German Collection of Microorganisms and Cell Cultures (DSMZ). The S. aureus HG001 strain and its daptomycin-resistant mutant, HG001 DAPR, were provided by the Institute for Pharmaceutical Microbiology (IPM), University of Bonn. E. coli WO153 was generously provided by the Antimicrobial Discovery Center, Department of Biology, Northeastern University. Additional strains were part of our internal collection and were cultured under conditions recommended by their respective depositors. A collection of twenty six vancomycin-resistant E. faecium clinical isolates with reduced sensitivity to daptomycin, were generously provided by PD Dr. Stefano Mancini from the Institute of Medical Microbiology, University of Zurich.

[2] = system: M. smegmatis mc^2155; conditions: 7H9 complete medium with 10% OADC, two-fold serial dilutions, 1% DMSO, visual read-out; mean of three independent biological replicates, each in technical triplicate

| Structure (SMILES) | MIC, P. aeruginosa PA14 ΔmexAB [1] [µg/mL] | MIC, M. smegmatis mc^2155 [2] [µg/mL] |
| --- | --- | --- |
| CN[C@@]1(C)C[C@H](O[C@@H]2[C@H](O)C[C@H](O[C@H]3[C@H](C)O[C@@H](O[C@H]4[C@H](O[C@H]5[C@H](C)O[C@@H](Oc6ccc(C[C@@H](O)C(=O)N[C@H]7CNC(=O)NC[C@@H](C(=O)N[C@H](Cc8ccccc8)C(=O)O)NC(=O)[C@H]([C@H](C)c8c[nH]c9ccc(Cl)cc89)NC7=O)cc6)C[C@]5(C)N)O[C@@H](C)[C@H](O)[C@H]4O)C[C@]3(C)NC)O[C@H]2C)O[C@@H](C)[C@@H]1OC [Saarvienin A, saarvienin A] | >64 | 1 (≈ 0.662 µM) |
| CN[C@H](CC(C)C)C(=O)N[C@H]1C(=O)N[C@@H](CC(N)=O)C(=O)N[C@H]2C(=O)N[C@H]3C(=O)N[C@H](C(=O)N[C@H](C(=O)O)c4cc(O)cc(O)c4-c4cc3ccc4O)[C@H](O)c3ccc(c(Cl)c3)Oc3cc2cc(c3O[C@@H]2O[C@H](CO)[C@@H](O)[C@H](O)[C@H]2O[C@H]2C[C@](C)(N)[C@H](O)[C@H](C)O2)Oc2ccc(cc2Cl)[C@H]1O [Vancomycin, vancomycin] |  | 2 (≈ 1.38 µM) |
